Values joined by “and” are separate entries in the source; they are usually repeats but may differ in a detail not shown here. Equal values may be shown once. Some entries share one result that the patent states for a list of compounds.
Columns and labels:
PDE4 = assay: In vitro determination of PDE4 inhibitory activity in the cell free assay (cAMP disappearance, U937 cell lysate supernatant); type: biochemical; details: U937 human monocytic cell lysate supernatant, read-out: PDE4 inhibition (IC50, 50% inhibition of cAMP disappearance)
[1] = In vitro determination of intrinsic clearance in human hepatic microsomes; details: 1 μM test compound

Row | SMILES | IC50 (PDE4) | intrinsic Clearance [1]
1 | CS(=O)(=O)N(CCN1CCOCC1)c1ccc2c(c1)C(=O)C(=O)N2CC(=O)O[C@@H](Cc1c(Cl)c[n+]([O-])cc1Cl)c1ccc(OC(F)F)c(OCC2CC2)c1 [Compound 240, (S)-3,5-dichloro-4-(2-(3-(cyclopropylmethoxy)-4-(difluoromethoxy)phenyl)-2-(2-(5-(N-(2-morpholinoethyl)methylsulfonamido)-2,3-dioxoindolin-1-yl)acetoxy)ethyl)pyridine 1-oxide] | 0.1 to 1 nM | > 15 mL/min/g
2 | CC1(C)c2ccccc2S(=O)(=O)N1CC(=O)O[C@@H](Cc1c(Cl)c[n+]([O-])cc1Cl)c1ccc(OC(F)F)c(OCC2CC2)c1 [Compound 35, (S)-3,5-dichloro-4-(2-(3-(cyclopropylmethoxy)-4-(difluoromethoxy)phenyl)-2-(2-(3,3-dimethyl-1,1-dioxidobenzo[d]isothiazol-2(3H)-yl)acetoxy)ethyl)pyridine 1-oxide] | < 0.1 nM | > 15 mL/min/g
3 | CS(=O)(=O)Nc1ccc2c(ccn2CC(=O)O[C@@H](Cc2c(Cl)c[n+]([O-])cc2Cl)c2ccc(OC(F)F)c(OCC3CC3)c2)c1 [Compound 76, (S)-3,5-dichloro-4-(2-(3-(cyclopropylmethoxy)-4-(difluoromethoxy)phenyl)-2-(2-(5-(methylsulfonamido)-1H-indol-1-yl)acetoxy)-ethyl)pyridine 1-oxide] | < 0.1 nM | > 15 mL/min/g
4 | O=C(CN1C(=O)C(=O)c2ccc(N3CCOCC3)cc21)O[C@@H](Cc1c(Cl)c[n+]([O-])cc1Cl)c1ccc(OC(F)F)c(OCC2CC2)c1 [Compound 142, (S)-3,5-dichloro-4-(2-(3-(cyclopropylmethoxy)-4-(difluoromethoxy)phenyl)-2-(2-(6-morpholino-2,3-dioxoindolin-1-yl)acetoxy)ethyl)pyridine 1-oxide] | < 0.1 nM | > 15 mL/min/g
5 | CS(=O)(=O)N(Cc1cccnc1)c1ccc2c(c1)C(=O)N(CC(=O)O[C@@H](Cc1c(Cl)c[n+]([O-])cc1Cl)c1ccc(OC(F)F)c(OCC3CC3)c1)C2=O [Compound 186] | < 0.1 nM | > 15 mL/min/g
6 | O=C(Cn1c(=O)n(CCN2CCOCC2)c(=O)c2ccccc21)O[C@@H](Cc1c(Cl)c[n+]([O-])cc1Cl)c1ccc(OC(F)F)c(OCC2CC2)c1 [Compound 38] | 0.1 to 1 nM | > 15 mL/min/g
7 | CS(=O)(=O)N(CCN1CCCCC1)c1ccc2c(c1)C(=O)N(CC(=O)O[C@@H](Cc1c(Cl)c[n+]([O-])cc1Cl)c1ccc(OC(F)F)c(OCC3CC3)c1)C2=O [Compound 189, (S)-3,5-dichloro-4-(2-(3-(cyclopropylmethoxy)-4-(difluoromethoxy)phenyl)-2-(2-(1,3-dioxo-5-(N-(2-(piperidin-1-yl)ethyl)methylsulfonamido)isoindolin-2-yl)acetoxy)ethyl)pyridine 1-oxide] | 0.1 to 1 nM | > 15 mL/min/g
8 | O=C(CN1C(=O)c2ccccc2S1(=O)=O)O[C@@H](Cc1c(Cl)c[n+]([O-])cc1Cl)c1ccc(OC(F)F)c(OCC2CC2)c1 [Compound 102, (S)-3,5-dichloro-4-(2-(3-(cyclopropylmethoxy)-4-(difluoromethoxy)phenyl)-2-(2-(1,1-dioxido-3-oxobenzo[d]isothiazol-2(3H)-yl)acetoxy)ethyl)pyridine 1-oxide] | < 0.1 nM | > 15 mL/min/g
9 | COc1ccc2c(ccn2CC(=O)O[C@@H](Cc2c(Cl)c[n+]([O-])cc2Cl)c2ccc(OC(F)F)c(OCC3CC3)c2)c1 [Compound 45, (S)-3,5-dichloro-4-(2-(3-(cyclopropylmethoxy)-4-(difluoromethoxy)phenyl)-2-(2-(5-methoxy-1H-indol-1-yl)acetoxy)ethyl)pyridine 1-oxide] | 0.1 to 1 nM | > 15 mL/min/g
10 | O=C(Cn1c(=O)c(=O)n(CCN2CCOCC2)c2ccccc21)O[C@@H](Cc1c(Cl)c[n+]([O-])cc1Cl)c1ccc(OC(F)F)c(OCC2CC2)c1 [Compound 37, (S)-3,5-dichloro-4-(2-(3-(cyclopropylmethoxy)-4-(difluoromethoxy)phenyl)-2-(2-(4-(2-morpholinoethyl)-2,3-dioxo-3,4-dihydroquinoxalin-1(2H)-yl)acetoxy)ethyl)pyridine 1-oxide] | < 0.1 nM | > 15 mL/min/g
11 | CC(C(=O)OC(Cc1c(Cl)c[n+]([O-])cc1Cl)c1ccc(OC(F)F)c(OCC2CC2)c1)N1C(=O)c2ccccc2C1=O (centres unmarked) [Compound 18] | < 0.1 nM | > 15 mL/min/g
12 | O=C(Cn1ccc2ccccc21)O[C@@H](Cc1c(Cl)c[n+]([O-])cc1Cl)c1ccc(OC(F)F)c(OCC2CC2)c1 [Compound 14, (S)-4-(2-(2-(1H-indol-1-yl)acetoxy)-2-(3-(cyclopropylmethoxy)-4-(difluoromethoxy)phenyl)ethyl)-3,5-dichloropyridine 1-oxide] | < 0.1 nM and 0.1 to 1 nM | > 15 mL/min/g
13 | CS(=O)(=O)N(CCN1CCOCC1)c1ccc2c(c1)CC(=O)N2CC(=O)O[C@@H](Cc1c(Cl)c[n+]([O-])cc1Cl)c1ccc(OC(F)F)c(OCC2CC2)c1 [Compound 243, (S)-3,5-dichloro-4-(2-(3-(cyclopropylmethoxy)-4-(difluoromethoxy)phenyl)-2-(2-(5-(N-(2-morpholinoethyl)methylsulfonamido)-2-oxoindolin-1-yl)acetoxy)ethyl)pyridine 1-oxide] | < 0.1 nM | > 15 mL/min/g
14 | CN(C)CCN(C)CCN(c1ccc2c(c1)C(=O)N(CC(=O)O[C@@H](Cc1c(Cl)c[n+]([O-])cc1Cl)c1ccc(OC(F)F)c(OCC3CC3)c1)C2=O)S(C)(=O)=O [Compound 216] | < 0.1 nM | > 15 mL/min/g
15 | CS(=O)(=O)N(CCCN1CCOCC1)c1ccc2c(c1)C(=O)N(CC(=O)O[C@@H](Cc1c(Cl)c[n+]([O-])cc1Cl)c1ccc(OC(F)F)c(OCC3CC3)c1)C2=O [Compound 184] | < 0.1 nM | > 15 mL/min/g
16 | O=C(Cn1c(=O)[nH]c2ccccc2c1=O)O[C@@H](Cc1c(Cl)c[n+]([O-])cc1Cl)c1ccc(OC(F)F)c(OCC2CC2)c1 [Compound 30] | 0.1 to 1 nM | > 15 mL/min/g
17 | CS(=O)(=O)N(Cc1cnccn1)c1ccc2c(c1)C(=O)N(CC(=O)O[C@@H](Cc1c(Cl)c[n+]([O-])cc1Cl)c1ccc(OC(F)F)c(OCC3CC3)c1)C2=O [Compound 200] | < 0.1 nM | > 15 mL/min/g
18 | CS(=O)(=O)N(Cc1ccccn1)c1ccc2c(c1)C(=O)N(CC(=O)O[C@@H](Cc1c(Cl)c[n+]([O-])cc1Cl)c1ccc(OC(F)F)c(OCC3CC3)c1)C2=O [Compound 190] | < 0.1 nM | > 15 mL/min/g
19 | CS(=O)(=O)Nc1ccc2c(c1)C(=O)N(CC(=O)O[C@@H](Cc1c(Cl)c[n+]([O-])cc1Cl)c1ccc(OC(F)F)c(OCC3CC3)c1)C2=O [Compound 167, (S)-3,5-dichloro-4-(2-(3-(cyclopropylmethoxy)-4-(difluoromethoxy)phenyl)-2-(2-(5-(methylsulfonamido)-1,3-dioxoisoindolin-2-yl)acetoxy)ethyl)pyridine 1-oxide] | < 0.1 nM | > 15 mL/min/g
20 | CS(=O)(=O)N(CCN1CCSCC1)c1ccc2c(c1)C(=O)N(CC(=O)O[C@@H](Cc1c(Cl)c[n+]([O-])cc1Cl)c1ccc(OC(F)F)c(OCC3CC3)c1)C2=O [Compound 215] | < 0.1 nM | > 15 mL/min/g
21 | O=C(CN1C(=O)C(=O)c2ccccc21)O[C@@H](Cc1c(Cl)c[n+]([O-])cc1Cl)c1ccc(OC(F)F)c(OCC2CC2)c1 [Compound 25] | 0.1 to 1 nM | > 15 mL/min/g
22 | CS(=O)(=O)N(CCN1CCOCC1)c1cccc2c1C(=O)N(CC(=O)O[C@@H](Cc1c(Cl)c[n+]([O-])cc1Cl)c1ccc(OC(F)F)c(OCC3CC3)c1)C2=O.O=C(O)C(F)(F)F [Compound 176, (S)-3,5-dichloro-4-(2-(3-(cyclopropylmethoxy)-4-(difluoromethoxy)phenyl)-2-(2-(4-(N-(2-morpholinoethyl)methylsulfonamido)-1,3-dioxoisoindolin-2-yl)acetoxy)ethyl)pyridine 1-oxide 2,2,2-trifluoroacetic acid salt] | 0.1 to 1 nM | > 15 mL/min/g
23 | O=C(Cn1c(=O)c2ccccc2c(=O)n1CCN1CCOCC1)O[C@@H](Cc1c(Cl)c[n+]([O-])cc1Cl)c1ccc(OC(F)F)c(OCC2CC2)c1 [Compound 40] | 0.1 to 1 nM | > 15 mL/min/g
24 | O=C(CN1C(=O)c2cc(Cl)c(Cl)cc2C1=O)O[C@@H](Cc1c(Cl)c[n+]([O-])cc1Cl)c1ccc(OC(F)F)c(OCC2CC2)c1 [Compound 19] | 0.1 to 1 nM | > 15 mL/min/g
25 | O=C(CN1C(=O)c2ccccc2C1=O)O[C@@H](Cc1c(Cl)c[n+]([O-])cc1Cl)c1ccc(OC(F)F)c(OC2CCOC2)c1 (stereo partly drawn) [Compound 261, 3,5-dichloro-4-((2S)-2-(4-(difluoromethoxy)-3-(tetrahydrofuran-3-yloxy)phenyl)-2-(2-(1,3-dioxoisoindolin-2-yl)acetoxy)-ethyl)pyridine 1-oxide] | < 0.1 nM | > 15 mL/min/g
